The other results are listed elsewhere or left out.

The source of these data is a collection of fitness landscapes (doi:10.1126/science.1257360).

The chains are these.
B1: PhoQ; a variant is named by its letters at X, in order, P23837 (parent)
chain: MKKLLRLFFPLSLRVRFLLATAAVVLVLSLAYGMVALIGYSVSFDKTTFRLLRGESNLFYTLAKWENNKLHVELPENIDKQSPTMTLIYDENGQLLWAQRDVPWLMKMIQPDWLKSNGFHEIEADVNDTSLLLSGDHSIQQQLQEVREDDDDAEMTHSVAVNVYPATSRMPKLTIVVVDTIPVELKSSYMVWSWFIYVLSANLLLVIPLLWVAAWWSLRPIEALAKEVRELEEHNRELLNPATTRELTSLVRNLNRLLKSERERYDKYRTTLTDLTHSLKTPLXXLQXXLRSLRSEKMSVSDAEPVMLEQISRISQQIGYYLHRASMRGGTLLSRELHPVAPLLDNLTSALNKVYQRKGVNISLDISPEISFVGEQNDFVEVMGNVLDNACKYCLEFVEISARQTDEHLYIVVEDDGPGIPLSKREVIFDRGQRVDTLRPGQGVGLAVAREITEQYEGKIVAGESMLGGARMEVIFGRQHSAPKDE

Variants of B1 are the subject of this assay. Kind of assay: enrichment ratio after two sorts for PhoP signalling (ratio (wild type AVST 3.29)); higher = more functional. The settings on record: with PhoP (E. coli).
Consider HKCH, for which the enrichment ratio is at most 0.25.

For ESGQ, the enrichment ratio was at most 0.25.

Turning to ITLP, the enrichment ratio is at most 0.25.

In the case of YWMF, the enrichment ratio is at most 0.25.

In the case of ETLW, the enrichment ratio was at most 0.25.

On to LRVE, for which the enrichment ratio was at most 0.25.

In the case of AGGG, the enrichment ratio was at most 0.25.

With FDFH, the enrichment ratio was at most 0.25.

On to YMNI, for which the enrichment ratio is at most 0.25.

With FHVS, the enrichment ratio was at most 0.25.

Regarding SQLE, the enrichment ratio worked out at 16.5.

Consider GNAP, for which the enrichment ratio is at most 0.25.

In the case of LSNR, the enrichment ratio was at most 0.25.

Take TRKR: the enrichment ratio is at most 0.25.

Consider NRCT, for which the enrichment ratio was at most 0.25.

For the variant YFYF, the enrichment ratio was at most 0.25.

On to DPIH, for which the enrichment ratio was at most 0.25.

For MDCC, the enrichment ratio is at most 0.25.

Turning to LMFQ, the enrichment ratio was at most 0.25.

As to GHKL, the enrichment ratio was at most 0.25.

Consider KLFG, for which the enrichment ratio was at most 0.25.

Regarding AWYD, the enrichment ratio was at most 0.25.

Take KMTM: the enrichment ratio is at most 0.25.

YMQH: the enrichment ratio is at most 0.25.

As to YVYL, the enrichment ratio was at most 0.25.

With NKYF, the enrichment ratio is at most 0.25.

KKAW: the enrichment ratio was at most 0.25.

For the variant HMQF, the enrichment ratio was at most 0.25.

Take DHPL: the enrichment ratio is at most 0.25.

Regarding TFEI, the enrichment ratio is at most 0.25.

For the variant YIRL, the enrichment ratio is at most 0.25.

As to KQLG, the enrichment ratio was at most 0.25.

In the case of PYYM, the enrichment ratio is at most 0.25.

With MNPI, the enrichment ratio is at most 0.25.

On to ICAL, for which the enrichment ratio was found to be 0.516.

For HCTF, the enrichment ratio was at most 0.25.

As for DCIE, the enrichment ratio is at most 0.25.

For NMWM, the enrichment ratio is at most 0.25.

RSFG: the enrichment ratio is at most 0.25.

Regarding GGVH, the enrichment ratio was at most 0.25.

As for HYFT, the enrichment ratio is at most 0.25.

As to QSVE, the enrichment ratio was at most 0.25.

On to HLCF, for which the enrichment ratio was at most 0.25.

Take DTFV: the enrichment ratio is at most 0.25.

Regarding FSVY, the enrichment ratio is at most 0.25.

Turning to RAFF, the enrichment ratio was at most 0.25.

In the case of KIIA, the enrichment ratio is at most 0.25.

On to AGER, for which the enrichment ratio is at most 0.25.

On to AYLQ, for which the enrichment ratio is 0.526.

Consider GDYS, for which the enrichment ratio was at most 0.25.

HRFI: the enrichment ratio was at most 0.25.

Regarding RQPD, the enrichment ratio was at most 0.25.

As to YHKY, the enrichment ratio is at most 0.25.

Turning to QDDL, the enrichment ratio was at most 0.25.

Consider YHFW, for which the enrichment ratio was at most 0.25.

As for DFHT, the enrichment ratio was at most 0.25.

For the variant HWGE, the enrichment ratio is at most 0.25.

As for KQPH, the enrichment ratio was at most 0.25.

With HVRW, the enrichment ratio was determined as 1.21.

Consider YNEV, for which the enrichment ratio was at most 0.25.

Consider IIIN, for which the enrichment ratio is at most 0.25.

As to TNMA, the enrichment ratio was determined as 5.41.

As for PCAF, the enrichment ratio was at most 0.25.

As to LGPH, the enrichment ratio is at most 0.25.

On to MIMF, for which the enrichment ratio was found to be 0.51.

As to MACN, the enrichment ratio came to 1.06.

As to EGPT, the enrichment ratio was at most 0.25.

As for LLWD, the enrichment ratio was at most 0.25.

As to NQIC, the enrichment ratio was at most 0.25.

Consider QIAF, for which the enrichment ratio is at most 0.25.

With EDKG, the enrichment ratio was at most 0.25.

For PLTS, the enrichment ratio was at most 0.25.

Consider MLEG, for which the enrichment ratio was at most 0.25.

As for GWKT, the enrichment ratio is at most 0.25.

In the case of HELF, the enrichment ratio was at most 0.25.

As for YQFS, the enrichment ratio is at most 0.25.

In the case of FWME, the enrichment ratio was at most 0.25.

As to GLWE, the enrichment ratio was at most 0.25.

On to WRNW, for which the enrichment ratio is at most 0.25.

In the case of YFNK, the enrichment ratio is at most 0.25.

MAWA: the enrichment ratio was at most 0.25.

As to FCTW, the enrichment ratio is at most 0.25.

As to NFCL, the enrichment ratio is at most 0.25.

Consider QWHV, for which the enrichment ratio was at most 0.25.

With VMTL, the enrichment ratio came out at 1.45.

As to GIFD, the enrichment ratio was at most 0.25.

For PQQD, the enrichment ratio is at most 0.25.

Consider IWFD, for which the enrichment ratio was at most 0.25.

For MPWI, the enrichment ratio was at most 0.25.

DKTF: the enrichment ratio is at most 0.25.

For WYFI, the enrichment ratio was at most 0.25.

PNPC: the enrichment ratio is at most 0.25.

In the case of MFKQ, the enrichment ratio was at most 0.25.

With GFAM, the enrichment ratio was at most 0.25.

As for LPDL, the enrichment ratio is at most 0.25.

VTKM: the enrichment ratio is at most 0.25.

For the variant YCGK, the enrichment ratio was at most 0.25.

For the variant WAYN, the enrichment ratio was at most 0.25.

As for SCSE, the enrichment ratio was 7.26.

For the variant STIG, the enrichment ratio is 6.57.

LRSA: the enrichment ratio is at most 0.25.

Consider NGFD, for which the enrichment ratio is at most 0.25.

With IRTM, the enrichment ratio is at most 0.25.

On to VWTN, for which the enrichment ratio was at most 0.25.

Turning to FSCQ, the enrichment ratio was determined as 7.11.

As for YPPS, the enrichment ratio was 0.298.

Take VFYA: the enrichment ratio is at most 0.25.

As for VHDV, the enrichment ratio is at most 0.25.

Turning to FFKV, the enrichment ratio was at most 0.25.

In the case of TKHP, the enrichment ratio is at most 0.25.

For YPSL, the enrichment ratio is at most 0.25.

For the variant SLGR, the enrichment ratio turned out to be 0.305.

Regarding WCLK, the enrichment ratio was at most 0.25.

In the case of GRSC, the enrichment ratio was at most 0.25.

Turning to PAFM, the enrichment ratio was at most 0.25.

Turning to SMWL, the enrichment ratio is at most 0.25.

With PESS, the enrichment ratio is at most 0.25.

With LPQT, the enrichment ratio was at most 0.25.

Take YWKV: the enrichment ratio was at most 0.25.

MNWW: the enrichment ratio was at most 0.25.

On to HWRV, for which the enrichment ratio is at most 0.25.

Turning to GVRM, the enrichment ratio was at most 0.25.

With WRCD, the enrichment ratio is at most 0.25.

As for GFCH, the enrichment ratio is at most 0.25.

For the variant LKPC, the enrichment ratio was at most 0.25.

For the variant HLIG, the enrichment ratio is at most 0.25.

With EFHR, the enrichment ratio is at most 0.25.

As to SGDQ, the enrichment ratio is at most 0.25.

For SHSG, the enrichment ratio was found to be 1.68.

On to PSQC, for which the enrichment ratio was at most 0.25.

For the variant DEKS, the enrichment ratio stood at 1.38.

For the variant NHIW, the enrichment ratio was at most 0.25.

Consider LLSN, for which the enrichment ratio was at most 0.25.

Consider GNYS, for which the enrichment ratio is at most 0.25.

In the case of DRYH, the enrichment ratio is at most 0.25.

Regarding IKTK, the enrichment ratio is at most 0.25.

Consider DERG, for which the enrichment ratio is at most 0.25.

In the case of VGPM, the enrichment ratio is at most 0.25.

Turning to PCEL, the enrichment ratio was at most 0.25.

Take SAVR: the enrichment ratio was at most 0.25.

Regarding KNLR, the enrichment ratio is at most 0.25.

Turning to GHRH, the enrichment ratio was at most 0.25.

Regarding SCYF, the enrichment ratio is at most 0.25.

SRVL: the enrichment ratio amounted to 5.71.

On to PHCF, for which the enrichment ratio was at most 0.25.

For the variant FEYM, the enrichment ratio was 2.71.

LDAT: the enrichment ratio was at most 0.25.

In the case of THEY, the enrichment ratio was at most 0.25.

In the case of WADD, the enrichment ratio is at most 0.25.

Take WLTS: the enrichment ratio was at most 0.25.

For the variant HQLY, the enrichment ratio is 0.308.

As for PSLS, the enrichment ratio is at most 0.25.

In the case of YPCR, the enrichment ratio was at most 0.25.

Turning to YDIR, the enrichment ratio is at most 0.25.

VQLR: the enrichment ratio was at most 0.25.

For FCNP, the enrichment ratio was at most 0.25.

Turning to DRPF, the enrichment ratio is at most 0.25.

On to YPNN, for which the enrichment ratio was at most 0.25.

Turning to TGFW, the enrichment ratio is at most 0.25.

As for YLYT, the enrichment ratio was at most 0.25.

ITWF: the enrichment ratio is at most 0.25.

For the variant WEFW, the enrichment ratio is at most 0.25.

LFSL: the enrichment ratio was at most 0.25.

With ADSY, the enrichment ratio is at most 0.25.

On to VSSN, for which the enrichment ratio was at most 0.25.

As for PATS, the enrichment ratio was at most 0.25.

With GFAE, the enrichment ratio was at most 0.25.

QPVC: the enrichment ratio was at most 0.25.

For the variant NHQQ, the enrichment ratio was at most 0.25.

For RIVE, the enrichment ratio was at most 0.25.

Consider MKEA, for which the enrichment ratio was at most 0.25.

For the variant NVDD, the enrichment ratio is at most 0.25.

For KDTQ, the enrichment ratio was at most 0.25.

VVNL: the enrichment ratio was at most 0.25.

Take RGMV: the enrichment ratio is at most 0.25.

Consider VAGG, for which the enrichment ratio is at most 0.25.

For the variant PYKG, the enrichment ratio was at most 0.25.

For LCYT, the enrichment ratio was at most 0.25.

HYMD: the enrichment ratio is at most 0.25.

For the variant FEIP, the enrichment ratio is at most 0.25.

As for MIDH, the enrichment ratio is at most 0.25.

With LDYW, the enrichment ratio was at most 0.25.

As to IGHA, the enrichment ratio is at most 0.25.

LSGT: the enrichment ratio is at most 0.25.

YIHQ: the enrichment ratio is at most 0.25.

On to MFCC, for which the enrichment ratio is at most 0.25.

Consider VVFV, for which the enrichment ratio was at most 0.25.

For the variant HYGS, the enrichment ratio was at most 0.25.

Regarding GYLT, the enrichment ratio was at most 0.25.

Turning to YWCI, the enrichment ratio is at most 0.25.

Turning to DMGP, the enrichment ratio is at most 0.25.

Take PEFR: the enrichment ratio was at most 0.25.

In the case of ACFI, the enrichment ratio was at most 0.25.

As to WHSP, the enrichment ratio was at most 0.25.

For THNL, the enrichment ratio worked out at 12.7.
